Our source for the binding values is paper PMC6822988, “Native adiponectin in serum binds to mammalian cells expressing T-cadherin, but not AdipoRs or calreticulin” (eLife, 2019).

By UniProt entry, the sequences of proteins in these tests, tags left out. Residues count along the entry.
UniProt P14211, residues 18-416: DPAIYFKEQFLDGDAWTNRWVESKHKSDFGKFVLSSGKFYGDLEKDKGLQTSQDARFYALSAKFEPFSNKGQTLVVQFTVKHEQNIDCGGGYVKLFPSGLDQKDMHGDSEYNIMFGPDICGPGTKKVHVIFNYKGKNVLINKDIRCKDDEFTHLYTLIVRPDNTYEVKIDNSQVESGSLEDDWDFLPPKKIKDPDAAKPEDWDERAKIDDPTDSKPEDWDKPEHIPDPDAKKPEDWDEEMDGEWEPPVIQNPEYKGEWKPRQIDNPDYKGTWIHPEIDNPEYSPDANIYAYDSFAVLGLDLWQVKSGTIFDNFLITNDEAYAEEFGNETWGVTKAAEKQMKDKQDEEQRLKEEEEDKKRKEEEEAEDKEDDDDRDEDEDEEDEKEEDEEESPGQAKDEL
UniProt Q15848, residues 19-244: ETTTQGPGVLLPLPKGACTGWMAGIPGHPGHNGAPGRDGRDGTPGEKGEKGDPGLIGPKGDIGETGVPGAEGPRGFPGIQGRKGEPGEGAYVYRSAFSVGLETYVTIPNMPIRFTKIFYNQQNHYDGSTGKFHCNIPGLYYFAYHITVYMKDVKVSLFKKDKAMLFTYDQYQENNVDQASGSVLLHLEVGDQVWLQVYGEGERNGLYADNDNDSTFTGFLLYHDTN

The target of experiment [1] is T1, human AdipoR1 expressed on HEK293 cells (human) (UniProt Q96A54).
T1 sequence: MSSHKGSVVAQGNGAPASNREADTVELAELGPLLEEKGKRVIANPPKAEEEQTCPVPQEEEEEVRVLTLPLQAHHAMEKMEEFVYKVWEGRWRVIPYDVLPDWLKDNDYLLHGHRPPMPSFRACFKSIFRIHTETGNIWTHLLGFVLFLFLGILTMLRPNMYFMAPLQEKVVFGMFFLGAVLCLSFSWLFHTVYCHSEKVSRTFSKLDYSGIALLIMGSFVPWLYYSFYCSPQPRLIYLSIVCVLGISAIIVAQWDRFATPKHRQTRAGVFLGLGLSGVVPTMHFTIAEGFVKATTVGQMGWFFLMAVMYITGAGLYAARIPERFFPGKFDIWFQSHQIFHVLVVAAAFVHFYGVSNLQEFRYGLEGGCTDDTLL
As to the kind of experiment: cell-based binding, bound adiponectin detected by Western blot of the cell lysate; mouse or human serum diluted in serum-free DMEM applied to transiently transfected HEK293 cells, 4°C, 1 hr, washed three times; lysates on SDS-PAGE or native-PAGE. Background: In western blotting, separated proteins are transferred to a membrane and probed.

Experiment [2] addresses human calreticulin expressed in HEK293 cells (human) (UniProt P27797). The description is as above.
The target in experiment [3] is T2, human T-cadherin expressed on HEK293 cells (human) (UniProt P55290).
T2 sequence: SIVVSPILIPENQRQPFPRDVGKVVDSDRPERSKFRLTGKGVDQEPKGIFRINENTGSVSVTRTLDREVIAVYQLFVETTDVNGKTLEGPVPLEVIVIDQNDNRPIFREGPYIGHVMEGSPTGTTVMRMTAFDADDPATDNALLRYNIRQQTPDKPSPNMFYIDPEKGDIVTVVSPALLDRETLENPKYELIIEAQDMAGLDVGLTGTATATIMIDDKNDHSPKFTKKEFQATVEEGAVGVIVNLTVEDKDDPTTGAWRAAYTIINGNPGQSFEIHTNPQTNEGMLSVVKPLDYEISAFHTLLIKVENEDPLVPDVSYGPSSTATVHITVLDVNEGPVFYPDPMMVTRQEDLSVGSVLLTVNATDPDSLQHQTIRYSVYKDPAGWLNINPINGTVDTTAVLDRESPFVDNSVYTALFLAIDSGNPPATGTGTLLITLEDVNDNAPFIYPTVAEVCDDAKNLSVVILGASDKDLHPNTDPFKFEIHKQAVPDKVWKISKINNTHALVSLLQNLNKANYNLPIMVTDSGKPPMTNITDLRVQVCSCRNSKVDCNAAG
The description is as above.

In experiment [4] the target is T3, PA-tagged mouse T-cadherin stably expressed on CHO cells (mouse) (UniProt Q9WTR5).
T3 sequence: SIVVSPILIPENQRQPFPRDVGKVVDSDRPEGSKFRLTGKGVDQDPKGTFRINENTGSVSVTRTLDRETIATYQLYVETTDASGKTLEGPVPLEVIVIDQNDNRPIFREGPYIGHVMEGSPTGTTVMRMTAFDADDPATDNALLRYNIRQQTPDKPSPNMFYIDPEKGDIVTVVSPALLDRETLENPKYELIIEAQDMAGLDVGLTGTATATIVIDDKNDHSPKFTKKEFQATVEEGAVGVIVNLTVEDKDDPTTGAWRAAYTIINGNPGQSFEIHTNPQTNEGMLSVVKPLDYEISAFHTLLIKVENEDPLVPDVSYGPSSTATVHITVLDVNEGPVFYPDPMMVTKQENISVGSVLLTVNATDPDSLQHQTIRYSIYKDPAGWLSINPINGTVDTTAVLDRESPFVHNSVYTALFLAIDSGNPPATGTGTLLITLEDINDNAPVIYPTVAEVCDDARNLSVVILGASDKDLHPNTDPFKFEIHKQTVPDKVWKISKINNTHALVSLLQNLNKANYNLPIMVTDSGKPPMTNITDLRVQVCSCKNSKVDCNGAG
As to the kind of experiment: cell-based binding, bound adiponectin detected by Western blot of the cell lysate; mouse serum applied to CHO cells stably expressing PA-tagged receptors, 4°C, 1 hr, washed three times.

In experiment [5] the target is T4, endogenous T-cadherin of C2C12 myotubes (mouse (endogenous in C2C12)) (UniProt Q9WTR5).
T4 sequence: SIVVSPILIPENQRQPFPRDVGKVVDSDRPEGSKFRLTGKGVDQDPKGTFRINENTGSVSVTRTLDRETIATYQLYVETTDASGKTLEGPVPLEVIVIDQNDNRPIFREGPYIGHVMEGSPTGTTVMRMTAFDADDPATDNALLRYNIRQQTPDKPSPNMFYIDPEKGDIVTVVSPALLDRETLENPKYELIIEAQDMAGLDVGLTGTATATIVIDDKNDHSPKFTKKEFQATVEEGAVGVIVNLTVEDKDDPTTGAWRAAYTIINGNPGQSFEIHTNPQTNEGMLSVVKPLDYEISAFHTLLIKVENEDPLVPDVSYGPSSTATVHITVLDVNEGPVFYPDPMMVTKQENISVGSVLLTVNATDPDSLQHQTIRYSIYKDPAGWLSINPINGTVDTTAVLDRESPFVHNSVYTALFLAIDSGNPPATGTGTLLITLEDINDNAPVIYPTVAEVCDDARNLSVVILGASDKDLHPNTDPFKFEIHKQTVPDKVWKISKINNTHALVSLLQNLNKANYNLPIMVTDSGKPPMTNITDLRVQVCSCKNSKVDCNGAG
As to the kind of experiment: cell-based binding, bound adiponectin detected by Western blot of the cell lysate; mouse serum applied to differentiated C2C12 myotubes after RNAi knock-down of T-cadherin, AdipoR1, or AdipoR1 and R2.

Experiment [6] deals with mouse calreticulin expressed in HEK293 cells (mouse) (UniProt P14211). Description: cell-based binding, bound adiponectin detected by Western blot of the cell lysate; adiponectin purified from mouse serum or recombinant adiponectin applied to transiently transfected HEK293 cells, 4°C, 1 hr; only the binder purified.
In experiment [7] the target is T5, mouse T-cadherin expressed on HEK293 cells (mouse) (UniProt Q9WTR5).
T5 sequence: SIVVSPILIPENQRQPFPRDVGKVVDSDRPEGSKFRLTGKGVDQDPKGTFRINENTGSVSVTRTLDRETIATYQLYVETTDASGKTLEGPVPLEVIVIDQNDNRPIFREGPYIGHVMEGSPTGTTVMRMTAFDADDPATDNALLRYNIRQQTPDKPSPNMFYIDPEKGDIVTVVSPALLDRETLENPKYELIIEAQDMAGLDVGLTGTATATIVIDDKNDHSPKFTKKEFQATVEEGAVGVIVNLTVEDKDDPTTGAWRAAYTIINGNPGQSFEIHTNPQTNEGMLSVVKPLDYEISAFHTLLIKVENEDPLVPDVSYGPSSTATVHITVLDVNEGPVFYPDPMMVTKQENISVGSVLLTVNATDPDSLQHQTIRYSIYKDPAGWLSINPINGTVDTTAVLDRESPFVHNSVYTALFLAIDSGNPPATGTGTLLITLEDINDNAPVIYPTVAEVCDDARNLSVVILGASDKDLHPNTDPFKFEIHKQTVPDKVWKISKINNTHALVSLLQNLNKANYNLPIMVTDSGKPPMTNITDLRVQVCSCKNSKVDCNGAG
The experiment is described as above.

The target of experiment [8] is T6, PA-tagged mouse T-cadherin transiently expressed on HEK293 cells (mouse) (UniProt Q9WTR5).
T6 sequence: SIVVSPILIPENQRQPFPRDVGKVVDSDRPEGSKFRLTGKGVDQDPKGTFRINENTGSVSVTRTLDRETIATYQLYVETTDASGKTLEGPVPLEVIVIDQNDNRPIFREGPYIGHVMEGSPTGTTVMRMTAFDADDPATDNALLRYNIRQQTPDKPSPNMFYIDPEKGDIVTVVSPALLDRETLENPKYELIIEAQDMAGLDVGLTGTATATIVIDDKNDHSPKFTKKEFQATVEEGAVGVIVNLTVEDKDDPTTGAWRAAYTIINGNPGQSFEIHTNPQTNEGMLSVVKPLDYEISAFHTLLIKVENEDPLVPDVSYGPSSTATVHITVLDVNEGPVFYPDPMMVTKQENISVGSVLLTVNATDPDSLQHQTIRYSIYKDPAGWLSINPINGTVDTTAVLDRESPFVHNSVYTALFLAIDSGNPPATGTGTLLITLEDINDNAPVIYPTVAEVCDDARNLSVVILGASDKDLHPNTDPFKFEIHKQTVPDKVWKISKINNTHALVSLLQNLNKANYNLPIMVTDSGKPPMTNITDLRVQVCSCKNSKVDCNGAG
Description: cell-based binding, bound adiponectin detected by Western blot of the cell lysate; mouse or human serum diluted in serum-free DMEM applied to transiently transfected HEK293 cells, 4°C, 1 hr, washed three times; lysates on SDS-PAGE or native-PAGE.

Experiment [9] deals with PA-tagged mouse calreticulin transiently expressed in HEK293 cells (mouse) (UniProt P14211). The experiment is described as above.
In experiment [10] the target is mouse calreticulin expressed in HEK293 cells (mouse) (UniProt P14211). The description is as above.
Experiment [11] deals with T5, mouse T-cadherin expressed on HEK293 cells (mouse). The description is as above.

No constants are given. Whether binding was seen depends on the method and setting. Some entries that bind do so weakly or less than the wild type. For some assays here: Sequences can lack the tags named with a protein.

On to “native human adiponectin in human serum (from UniProt Q15848 19-244) (ligand)”, for which the binding entry in experiment [1] is “no binding”; in [2] it was “no binding”; in experiment [3], “binds”.

B1: native mouse adiponectin in mouse serum (ligand, UniProt Q60994 18-247, looked up)
chain: EDDVTTTEELAPALVPPPKGTCAGWMAGIPGHPGHNGTPGRDGRDGTPGEKGEKGDAGLLGPKGETGDVGMTGAEGPRGFPGTPGRKGEPGEAAYVYRSAFSVGLETRVTVPNVPIRFTKIFYNQQNHYDGSTGKFYCNIPGLYYFSYHITVYMKDVKVSLFKKDKAVLFTYDQYQEKNVDQASGSVLLHLEVGDQVWLQVYGDGDHNGLYADNVNDSTFTGFLLYHDTN
notes: adiponectin, mouse, circulating protein of serum; multimers (6-mer and HMW multimer) seen by native-PAGE; Used both as whole serum and as adiponectin purified from serum; Mixture of multimers; also called mouse serum adiponectin; native adiponectin; source: endogenous, serum of C57BL6J mice, used as serum without processing; also purified from mouse serum (Fukuda et al., 2017)
As to B1, the binding entry in [4] is listed as “binds”; in experiment [5], “binds”; in experiment [6], “no binding”; in experiment [7] it was “binds”; in [8] it was “binds”; in [9], “no binding”. Besides, the binding result in experiment [10] is “no binding”; in experiment [11], “binds”.
